# From PubChem BioAssay (NCATS)
# Inconclusive means that the source gave no clear call. Such entries were picked first, then a sample of the others. For part of these data: Potencies of inconclusive entries are left out as doubtful fits. Activity calls are given as the source filed them. Calls come from the whole dose curve; as a rule, active = well fitted curve in the direction sought with a large enough effect; inconclusive = small, poorly fitted or top-dose-only effect, or another doubt; inactive = no such curve, though single readings can be large; an effect the other way counts as inactive or inconclusive.
# How the values were obtained:
# [1] = tested on: Zika virus NS2B-NS3 protease (linked construct); assay: Primary screen NINDS Rhodamine qHTS for Zika virus inhibitors (AID 1347160); note: potency is the fitted concentration of half-maximal effect; nearly all actives have a fitted effect of over 55% in size
# Procedure, shortened: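 Percent inhibition, normalized to uninhibited and enzyme-free controls, is fitted to a 4-parameter Hill equation. Fluorescence change comes from a 15-min cleavage of 1.5 microM bis-peptide Rhodamine110 substrate by 25 nM linked NS2B-NS3 at room temperature.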
# [2] = Primary qHTS for inhibitors of nuclear receptor binding SET domain protein 2 (NSD2) in an RCH-ACV wild type WT cells (2C) (AID 1645877); conditions: activity change, negative = cell killing: at 44.9 µM (top of the series) unless noted; note: nearly all actives have a fitted effect of over 70% in size; note: potency is the fitted concentration of half-maximal effect
# CASKI = assay: Primary qHTS to identify gynecologic anti-cancer compounds using libraries of approved drugs and bioactive compounds (AID 1345084); conditions: Gynecologic cancer cell panel viability, ATPlite luminescence, 48 h; series mostly up to 57.5 µM; note: nearly all actives have a fitted effect of over 55% in size; note: potency is the fitted concentration of half-maximal effect; for activity change, negative = cytotoxicity: % is set by controls: 0 for no effect and ±100 for the full control effect
# Procedure, shortened: (§1)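 Cells, 1,000 per well, plated 16 h, then exposed 48 h at 37 C to compounds. Viability by ATPlite luminescence after 15 min at room temperature.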
# Es-2 = assay: as above; conditions: Gynecologic cancer cell panel viability, ATPlite luminescence, 48 h; series mostly up to 57.5 µM
# Procedure, shortened: as §1
# [3] = tested on: Zika virus NS2B-NS3 protease (unlinked complex); assay: Primary screen GU Rhodamine qHTS for Zika virus inhibitors: Unlinked NS2B-NS3 protease assay (AID 1347159); conditions: Recombinant ZIKV NS2B-NS3 protease, Rhodamine110 substrate fluorescence; activity change, negative = inhibition: at 107 µM (top of the series); note: potency is the fitted concentration of half-maximal effect; nearly all actives have a fitted effect of over 60% in size
# Procedure, shortened: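 Compounds, tested up to 114 microM, were incubated for 15 minutes with 25 nM unlinked NS2B-NS3 protease at pH 8.0. Cleavage of 1.5 microM Rhodamine110 substrate was then followed by fluorescence for 15 minutes.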
# [4] = tested on: Zika virus NS2B-NS3 protease (linked); assay: 384 well plate NINDS AMC confirmatory qHTS for Zika virus inhibitors (AID 1347163); note: potency is the fitted concentration of half-maximal effect; nearly all actives have a fitted effect of over 50% in size
# Procedure, shortened: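 Linked NS2B-NS3 protease (final 5 nM, 30 nM or 60 nM) was preincubated with compounds (final up to 1 mM) for ~15 minutes. Ac-VKTGKR-AMC substrate (final 30 microM) then reacted for 25 minutes at room temperature in the dark. Fluorescence (ex 355/em 460 nm) was normalized to no-enzyme and no-inhibitor controls.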
# [5] = HepG2 cells viability qHTS for Zika virus inhibitors (AID 1347168); note: % is set by controls: 0 for no effect and ±100 for the full control effect
# Procedure, shortened: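 Compounds were tested in concentration series on cells grown in DMEM containing 4% FBS. After 24 to 48 hours, cellular ATP was measured by luminescence with CellTiter Glo.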
# [6] = Tertiary RLuc qRT-PCR qHTS assay for Zika virus inhibitors (AID 1347169); note: potency is the fitted concentration of half-maximal effect; nearly all actives have a fitted effect of over 55% in size
# Procedure, shortened: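 Luminescence read-out: live-cell Renilla luciferase substrate applied to infected Vero cells, signal measured after 1-1.5 hrs. Cells had received compound before ZIKV-RLuc (Cambodian strain, MOI 1-2) infection and were incubated 48-72 hrs at 37 degrees C.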
# [7] = molecular target: Calcium and integrin-binding protein 1 (Homo sapiens) (UniProt Q99828); assay: Confirmatory qHTS for Identification of Calcium Integrin Binding Protein 1 (CIB1) Competitor (AID 1508617); note: potency is the fitted concentration of half-maximal effect; nearly all actives have a fitted effect of over 65% in size
# UniProt Q99828, sequence (Q99828 whole entry, looked up): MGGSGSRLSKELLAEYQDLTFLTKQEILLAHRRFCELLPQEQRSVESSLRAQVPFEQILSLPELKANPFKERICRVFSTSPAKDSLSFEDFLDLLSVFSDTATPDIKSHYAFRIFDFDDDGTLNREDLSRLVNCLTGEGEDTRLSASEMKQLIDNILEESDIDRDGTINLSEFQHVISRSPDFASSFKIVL
# Procedure, shortened: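 Binding competition between test compounds and fluorescent alphaIIb peptide for 1 uM CIB1-GST is monitored by FP at 480/540 nm. Final compound range is up to 114 uM; unlabeled peptide serves as reference competitor.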
# [8] = molecular target: Calcium and integrin-binding protein 1 (Homo sapiens) (UniProt Q99828); assay: Primary qHTS for Identification of Calcium Integrin Binding Protein 1 (CIB1) Competitor (AID 1508620); note: potency is the fitted concentration of half-maximal effect
# Procedure, shortened: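 CIB1-GST (1 uM final) and compound incubated 15 min at room temperature before adding FITC-alphaIIb peptide tracer (100 nM final). Competition for binding read by fluorescence polarization (ex 480, em 540) after another 15 min at room temperature.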
# [9] = Primary qHTS for inhibitors of nuclear receptor binding SET domain protein 2 (NSD2) in an isogenic RCH-ACV NSD2 p.E1099K mutant (9B) (AID 1645876); conditions: activity change, negative = viability loss: at 44.9 µM (top of the series) unless noted; note: nearly all actives have a fitted effect of over 70% in size; note: potency is the fitted concentration of half-maximal effect; for activity change, negative = viability loss: % is set by controls: 0 for no effect and ±100 for the full control effect
# [10] = molecular target: Glutathione peroxidase 1 (Homo sapiens) (UniProt P07203); assay: Primary qHTS Assay for Inhibitors of Recombinant Selenoprotein Glutathione Peroxidase 1 (GPX1) (AID 1845191); note: potency is the fitted concentration of half-maximal effect; nearly all actives have a fitted effect of over 65% in size
# UniProt P07203, sequence (P07203 whole entry, looked up): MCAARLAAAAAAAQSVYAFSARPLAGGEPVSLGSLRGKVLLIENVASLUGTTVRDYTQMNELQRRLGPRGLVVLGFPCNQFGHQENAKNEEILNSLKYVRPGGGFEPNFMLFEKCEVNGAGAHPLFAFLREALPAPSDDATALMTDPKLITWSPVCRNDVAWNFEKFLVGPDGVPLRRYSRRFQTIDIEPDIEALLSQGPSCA
# Procedure, shortened: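 10 nM GPX1 + cpd, 30 min RT; start w/ 1 mM GSH, 0.5 mM cumene hydroperoxide, 0.5 mM NADPH, 100 nM GR, 0.01% BSA; buffer 50 mM Tris-HCl pH 7.5, 2 mM EDTA, 150 mM NaCl; Fl 340/450, 0 & 15 min.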
# [11] = molecular target: Phospholipid hydroperoxide glutathione peroxidase GPX4 (Homo sapiens) (UniProt P36969); assay: Primary qHTS Assay for Inhibitors of Recombinant Selenoprotein Glutathione Peroxidase 4 (GPX4) (AID 1845192); conditions: activity change, negative = inhibition: at 50 µM (top of the series) unless noted; note: potency is the fitted concentration of half-maximal effect; nearly all actives have a fitted effect of over 65% in size
# UniProt P36969, sequence (P36969 whole entry, looked up): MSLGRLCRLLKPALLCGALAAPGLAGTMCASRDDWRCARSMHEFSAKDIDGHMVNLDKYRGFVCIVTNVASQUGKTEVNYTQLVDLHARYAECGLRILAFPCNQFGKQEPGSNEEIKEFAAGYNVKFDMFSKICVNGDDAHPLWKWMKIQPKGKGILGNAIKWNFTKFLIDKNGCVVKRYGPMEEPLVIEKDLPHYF
# Procedure, shortened: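 NADPH consumption, followed by fluorescence at 340/450 nm between 0 and 15 min, reports GPX4 activity via coupled glutathione reductase (100 nM). Enzyme 200 nM was pre-exposed to compound 30 min; 0.5 mM cumene hydroperoxide and 1 mM GSH served as substrates.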
# [12] = tested on: Nanoluciferase (engineered Oplophorus gracilirostris luciferase); assay: Primary Nanoluciferase (NLuc) qHTS assay for identification of artifact compounds. (AID 1845222); note: potency is the fitted concentration of half-maximal effect
# Procedure, shortened: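 Luminescence from secreted NLuc (filtered, 1:55-diluted S16 cell medium) read 5 min after Nano-Glo substrate; compounds preincubated 15 min, RT. Hill fits of inhibition normalized to DMSO and no-enzyme.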
# SKOV3 = assay: Primary qHTS to identify gynecologic anti-cancer compounds using libraries of approved drugs and bioactive compounds (AID 1345084); conditions: Gynecologic cancer cell panel viability, ATPlite luminescence, 48 h; series mostly up to 57.5 µM; note: nearly all actives have a fitted effect of over 55% in size; note: potency is the fitted concentration of half-maximal effect; for activity change, negative = cytotoxicity: % is set by controls: 0 for no effect and ±100 for the full control effect
# Procedure, shortened: as §1
# OV90 = assay: as above; conditions: Gynecologic cancer cell panel viability, ATPlite luminescence, 48 h; series mostly up to 57.5 µM
# Procedure, shortened: as §1
# [13] = Primary redox qHTS assay for identification of artifact compounds. (AID 1845223); note: potency is the fitted concentration of half-maximal effect
# Procedure, shortened: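 Amplex Red (25 uM) and HRP (250 mU/mL) in HBSS, with compounds for 15 min, then 250 uM DTT for 30 min, room temperature, dark. Fluorescence 525/598 nm read; normalized to DMSO and 10 uM DA3003; Hill fit.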
# Tags give direction and shape of the fitted curve.
structure (smiles),measurement,setting,value
C[C@@H]1O[C@@H](O[C@H]2[C@H](O[C@H]3[C@H](O[C@H]4CC[C@@]5(C)C(CC[C@]6(C)C5CC=C5[C@@H]7CC(C)(C)C[C@@H](O)[C@]7(C)CC[C@]56C)[C@@]4(C)CO)O[C@H](C(=O)O)[C@@H](O)[C@@H]3O)O[C@H](CO)[C@H](O)[C@@H]2O)[C@H](O)[C@H](O)[C@H]1O (some centres not stated),Potency,[1],"inconclusive [inhibitor, single point]"
same,outcome,[2],inactive [at 9.23 µM]
same,"activity change, negative = cytotoxicity",CASKI,inactive: 9.29% [at 11.6 µM]
same,"activity change, negative = cytotoxicity",Es-2,inactive: 0.369% [at 11.6 µM]
O=C(O)c1cnn(-c2nc3cc(OC(F)(F)F)c(Cl)cc3[nH]2)c1,Potency,[3],active: 5.01 µM
same,Potency,[1],active: 2 µM
same,Potency,[4],"inconclusive [inhibitor, partial curve]"
same,Potency,[5],inactive
same,Potency,[6],"inconclusive [inhibitor, partial curve]"
same,Potency,[7],"inconclusive [inhibitor, partial curve, poor fit]"
same,Potency,[8],"inconclusive [inhibitor, full curve]"
same,Potency,[9],"inconclusive [inhibitor, single point]"
same,Potency,[2],"inconclusive [inhibitor, single point]"
same,Potency,[10],"inconclusive [inhibitor, single point]"
same,Potency,[11],"inconclusive [inhibitor, single point]"
same,Potency,[12],"inconclusive [inhibitor, single point]"
same,Potency,CASKI,"inconclusive [rising, single point]"
same,Potency,Es-2,inactive
same,Potency,SKOV3,"inconclusive [cytotoxic, partial curve, poor fit]"
C=C1[C@@H]2CC[C@@]3(C)[C@H](c4ccoc4)OC(=O)C[C@]13O[C@H]1CC(=O)C(C)(C)[C@H](CC(=O)OC)[C@]12C,Potency,[9],inactive
same,Potency,CASKI,inactive
same,Potency,OV90,inactive
same,Potency,SKOV3,inactive
CC(=O)OC1C(O)C(C)=C(CCC(C)CC(=O)O)C2(C)CCCC(C)(C)C12 (configuration not stated),Potency,[13],"inconclusive [activator, partial curve]"
same,Potency,CASKI,inactive
same,Potency,OV90,inactive
same,Potency,SKOV3,inactive
